# “And” between values parts separate entries of the source, which are not always exact repeats. Equal entries are not always repeated. Among all 280,000 compounds or so, about 1,100 (0.39%) were called active. The inconclusive results got no clear call from the source; some entries with a clear call stand among them for comparison. The call rests on the fitted dose curve; in most records, active means well fitted inhibition curve with a large enough effect; inconclusive means small, poorly fitted or top-dose-only effect, or effect the other way; inactive means flat fitted curve, though single readings scatter. Potencies of inconclusive entries are doubtful fits and often do not repeat.
# Biological target: Microtubule-associated protein tau (Homo sapiens) (UniProt P10636)
# Assay: qHTS for Inhibitors of Tau Fibril Formation, Fluorescence Polarization; further: nearly all actives have a fitted effect of over 55% in size
# Conditions: K18 P301L tau heparin fibrillization, Alexa594 FP, 6 h; series mostly up to 57.7 µM; activity, negative = inhibition: at the top concentration
# In short: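 Heparin (20 uM) drove fibril formation of recombinant tau K18 P301L, 15 uM unlabeled with 0.24 uM Alexa 594 label, for 6 hr at 37 C in 100 mM sodium acetate pH 7. Fluorescence polarization (555/632 nm) read 1 hr after 30 uM ThT.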
# On the % scale 0 is the no-effect control and ±100 the full control effect; potency means the concentration at half of the fitted maximal effect; tags describe the fitted curve by direction and shape.
# Sequence of UniProt P10636 (P10636 whole entry, looked up): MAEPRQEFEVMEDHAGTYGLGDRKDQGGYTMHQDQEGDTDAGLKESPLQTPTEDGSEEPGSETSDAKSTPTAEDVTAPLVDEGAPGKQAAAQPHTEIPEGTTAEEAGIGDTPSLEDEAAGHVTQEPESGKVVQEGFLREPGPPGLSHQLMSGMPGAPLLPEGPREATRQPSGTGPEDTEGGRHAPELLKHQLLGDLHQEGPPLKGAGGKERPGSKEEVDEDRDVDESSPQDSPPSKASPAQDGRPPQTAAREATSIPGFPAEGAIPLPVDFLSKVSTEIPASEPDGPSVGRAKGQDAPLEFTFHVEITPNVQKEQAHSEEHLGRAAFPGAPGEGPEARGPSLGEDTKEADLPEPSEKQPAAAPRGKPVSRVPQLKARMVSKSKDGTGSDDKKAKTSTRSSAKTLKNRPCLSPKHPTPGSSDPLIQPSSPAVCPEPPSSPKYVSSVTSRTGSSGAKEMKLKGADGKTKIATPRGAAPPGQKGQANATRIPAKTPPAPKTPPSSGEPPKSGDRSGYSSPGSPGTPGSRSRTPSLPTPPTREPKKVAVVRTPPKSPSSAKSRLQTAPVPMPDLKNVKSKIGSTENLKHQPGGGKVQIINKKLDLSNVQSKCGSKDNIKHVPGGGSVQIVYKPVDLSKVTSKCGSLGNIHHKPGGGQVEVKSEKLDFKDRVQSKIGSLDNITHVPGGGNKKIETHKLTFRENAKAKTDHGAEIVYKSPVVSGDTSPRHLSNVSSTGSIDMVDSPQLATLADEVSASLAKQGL
Compound,"activity, negative = inhibition",Potency
CCN(CC)S(=O)(=O)c1ccc(Cl)c(NC(=O)CCCCl)c1,inactive: -9.2%,
O=C(Nc1ccccc1)c1ccc(Br)c(S(=O)(=O)N2CCCCC2)c1,,"inconclusive: 39.8 µM [inhibitor, partial curve]"
CCOC(=O)C1=C(Cc2ccc(OC)cc2)C(=O)c2ccccc2C1=O,,active: 12.6 µM
O=C(Nc1ccc(C2CC2(Cl)Cl)cc1)c1ccccc1Br (stereo not drawn),inactive: 7.37%,
COc1ccccc1N1CCN(CCn2c(=O)c3c(c4ccccc4n3C)n(C)c2=O)CC1,,"inactive and inconclusive: 7.08 µM [inhibitor, single point]"
Cc1ccc2nc(-c3ccc(NS(=O)(=O)c4ccc(F)cc4)cc3)sc2c1,,"inconclusive: 14.1 µM [inhibitor, partial curve]"
COc1ccc2c(c1)OC1(O)COc3cc(OC)c(OC)cc3C1=C2 (stereo not drawn),,"inconclusive: 44.7 µM [activator, single point]"
CN(C)c1nc(-c2ccccc2)c2cnn(Cc3ccccc3)c2n1,,"inconclusive: 44.7 µM [inhibitor, single point]"
CC(C)c1ccc(-c2c(C#N)c(N)nc(SCC(=O)N3CCCCCC3)c2C#N)cc1,,"inconclusive: 3.16 µM [inhibitor, partial curve]"
O=[N+]([O-])c1ccc(N2CCOCC2)cc1SCc1ccco1,,"inconclusive: 44.7 µM [inhibitor, single point]"
C=CCn1c(SCC(=O)Nc2cccnc2Cl)nnc1-c1ccc(Cl)cc1,,"inconclusive: 8.91 µM [inhibitor, single point]"
CCOc1ccc(S(=O)(=O)N(CC(=O)NCCSc2ccccc2)c2ccccc2)cc1,,"inconclusive: 5.62 µM [inhibitor, partial curve]"
O=C(Cn1c2ncccc2c(=O)n1-c1ccccc1)Nc1ccc(F)c(F)c1,,"inconclusive: 20 µM [inhibitor, partial curve]"
CCCC1(C(=O)OCC)NC(c2ccc(N(C)C)cc2)C2C(=O)N(c3ccc4c(c3)OCCO4)C(=O)C21 (stereo not drawn),,"inconclusive: 11.2 µM [activator, partial curve]"
COc1ccccc1-c1cc(C(=O)N2CCCCC2C)no1 (stereo not drawn),inactive: -5.95%,
COc1ccc(/C=C2\SC(=O)N(CC(=O)NNC(=O)c3ccccc3O)C2=O)cc1OC,,"inconclusive: 10 µM [inhibitor, partial curve, poor fit]"
CCC(C)Oc1cccc(C(=O)Nc2ccccc2N2CCOCC2)c1 (stereo not drawn),inactive: 12.5%,
CCc1ccc(Nc2ncnc3c2cnn3-c2cc(Cl)ccc2C)cc1,,"inconclusive: 35.5 µM [inhibitor, single point]"
O=C(c1ccccc1Cl)N1CCSCC1,inactive: -11.1%,
Cc1cc(N2CCCC2)ccc1/C=C1/C(=O)N(C)C(=S)N1C,,"inconclusive: 35.5 µM [inhibitor, single point]"
CC1C/C(=C/c2ccncc2)C(=O)/C(=C/c2ccncc2)C1 (stereo not drawn),,"inconclusive: 7.94 µM [inhibitor, partial curve]"
CCOc1ccccc1NC(=O)c1nnn(CC(=O)Nc2ccc(OC)c(OC)c2)c1N,,"inconclusive: 20 µM [inhibitor, partial curve, poor fit]"

Compound,"activity, negative = inhibition",Potency
O=C(N/N=C\c1coc2ccccc2c1=O)c1ccco1,inactive: 1.72%,
COc1ccc(-c2cc(=O)c3c(O)cc(O)c(-c4cc(-c5cc(=O)c6c(O)cc(O)cc6o5)ccc4OC)c3o2)cc1,,active: 17.8 µM
O=C(NC(NC(=S)Nc1c(Cl)cccc1Cl)C(Cl)(Cl)Cl)OCc1ccccc1 (stereo not drawn),,"inconclusive: 39.8 µM [inhibitor, single point]"
Cn1[nH]c(CSc2ccc(Cl)cc2)cc1=O,,"inconclusive: 1.78 µM [inhibitor, partial curve]"
O=C(COc1ccc(S(=O)(=O)N2CCCCC2)cc1)NCc1ccncc1,inactive: -4.63%,
O=C(Nc1cccc(Cl)c1)OCCN1CCN(Cc2ccccc2)CCC1=O,,"inconclusive: 20 µM [inhibitor, partial curve]"
Cn1nc(C(=O)NCc2ccc(Cl)cc2)c2c1-c1ccccc1SC2,,"inconclusive: 44.7 µM [inhibitor, single point]"
CCOc1cc(C2c3c(-c4ccc(Br)cc4)n[nH]c3C(=O)N2c2ccc(Cl)cc2)ccc1O (stereo not drawn),,"inconclusive: 17.8 µM [inhibitor, partial curve]"
Cc1c(N=Cc2cccs2)c(=O)n(-c2ccccc2)n1C,inactive: -1.42%,
CCOC(=O)C1C(c2ccc(O)c(OCC)c2)NC(=S)NC1(O)C(F)(F)F (stereo not drawn),,"inconclusive: 0.891 µM [inhibitor, single point]"
O=[N+]([O-])c1cc(C(F)(F)F)cc([N+](=O)[O-])c1NN=C1CCCCC1,,"inconclusive: 17.8 µM [inhibitor, partial curve]"
CCc1ccc(C(=O)NCc2cccs2)s1,inactive: 2.17%,
O=C(NCc1ccco1)/C(=C\c1cccs1)NC(=O)c1cccs1,,"inconclusive: 20 µM [activator, partial curve, poor fit]"
Cc1ccc(O)c(N=Nc2ccccc2)n1,,inactive
COc1cccc(N(C(=O)c2nc3nccc(C)n3n2)c2nc3ccccc3s2)c1,,"inconclusive: 17.8 µM [activator, partial curve, poor fit]"
CCOC(=O)CSc1nc2ccc(NC(=O)c3ccccc3F)cc2s1,,"inconclusive: 4.47 µM [inhibitor, single point]"
Cc1ccccc1-c1nc2cc(NC(=O)COc3ccc(F)cc3)ccc2o1,,"inconclusive: 10 µM [inhibitor, partial curve]"
Cc1noc(C)c1COc1ccc(C(=O)OCC(=O)Nc2ccc3ccccc3c2)cc1,,"inconclusive: 15.8 µM [inhibitor, partial curve, poor fit]"
CC1=C(C(=O)Nc2ccc(C)cc2C)C(c2ccccc2)n2ncc(C(=O)Nc3ccccc3)c2N1 (stereo not drawn),,"inconclusive: 39.8 µM [inhibitor, single point]"
C/C=C/C(=O)OCC(=O)Nc1cccc(F)c1,inactive: -3.4%,
Oc1ccc(/C=N/Nc2nc(N3CCCCCC3)nc(N3CCCCCC3)n2)c(O)c1,inactive: -13.6%,

# Source: PubChem BioAssay AID1468 (National Center for Advancing Translational Sciences (NCATS), 2008)
